In all, about 310,000 compounds went through this assay and about 18,000 (5.8%) were called active. Inconclusive means that the source gave no clear call. Such entries were picked first, then a sample of the others. Calls come from the whole dose curve; as a rule, active = well fitted inhibition curve with a large enough effect; inconclusive = small, poorly fitted or top-dose-only effect, or another doubt; inactive = no such curve, though single readings can be large or run the other way. No potency is given beside an inconclusive call; the fits are too rough.
Test: Primary qHTS for delayed death inhibitors of the malarial parasite plastid, 48 hour incubation
Conditions: P. falciparum luciferase growth in erythrocytes; series mostly up to 28.7 µM; activity change, negative = inhibition: at the top concentration
Outline: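 Luciferase-expressing P. falciparum in infected erythrocytes (2% hematocrit, 0.1% parasitemia final) in RPMI 1640/0.5% Albumax were exposed to compound for 48 hours at 37 C, 5% CO2; growth read as luminescence.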
% is set by controls: 0 for no effect and ±100 for the full control effect; potency is the fitted concentration of half-maximal effect; tags give direction and shape of the fitted curve.

Row | SMILES | activity change, negative = inhibition | Potency
1 | CCOC(=O)c1c(O)c2cc(Cl)ccc2n(CC)c1=O | inactive: -20% | –
2 | O=C(CN1CCCCCCC1)Nc1cccc(Cl)c1Cl | inactive: 53.4% | –
3 | N#Cc1nc(COc2ccccc2Cl)oc1NCc1ccco1 | inactive: -23.1% | –
4 | COC(=O)c1ccc(C(=O)OC)c(NC(=O)CN(C)Cc2ccc(Cl)c(Cl)c2)c1 | – | active: 10.4 µM
5 | Brc1ccccc1OCCCCN1CCCCC1 | – | inconclusive [inhibitor, single point]
6 | CCN(CC)S(=O)(=O)c1ccc(N2CCN(c3cccc(OC)c3)CC2)c([N+](=O)[O-])c1 | – | inconclusive [inhibitor, partial curve, poor fit]
7 | NC1CCN(c2nc3c(cc2F)c(=O)c(C(=O)O)cn3-c2ccc(F)cc2F)C1 (stereo not given) | – | active: 3.79 µM
8 | CCOC(=O)c1c(C)n(C)c2ccc(O)c(CN3CCC(C)CC3)c12 | – | inconclusive [inhibitor, single point]
9 | CC1CCCC(C)N1C(=O)CSc1nnc(-c2c[nH]c3ccccc23)o1 (stereo not given) | – | inconclusive [inhibitor, partial curve]
10 | CC(=O)N1CCN(c2ccc(NC(=O)c3cccc(Cl)c3Cl)cc2)CC1 | – | inconclusive [inhibitor, partial curve, poor fit]
11 | O=C(Nc1ccc2c(c1)nc1n2CCOC1)c1ccco1 | inactive: 144% | –
12 | O=C(CCn1nc(-c2ccccc2)c2ccccc2c1=O)NN1CCOCC1 | inactive: 8.73% | –
13 | Cc1ccc(CNc2ccc3c(c2)OCO3)cc1 | – | inconclusive [inhibitor, single point]
14 | O=C(c1cccc([N+](=O)[O-])c1)C12CN3CN(CN(C3)C1)C2 | – | inconclusive [inhibitor, single point]
15 | c1ccc(CC2CCN(c3nc4ccccc4n4cnnc34)CC2)cc1 | – | inconclusive [inhibitor, single point]
16 | COc1ccc(NC(=O)CSc2nn3c(=O)c(C)nnc3s2)cc1 | – | inconclusive [inhibitor, single point]
17 | CCN1/C(=C/C(C)=C/c2sc3ccccc3[n+]2CC)Sc2ccccc21 | – | inconclusive [inhibitor, single point]
18 | O=[N+]([O-])c1ccc(CSc2ccc(S(=O)(=O)N3CCCCCC3)cn2)cc1 | – | inconclusive [inhibitor, single point]
19 | CC12CCC(C(N)=O)(c3nc4ccccc4nc31)C2(C)C (stereo not given) | – | inconclusive [inhibitor, partial curve, poor fit]
20 | Cc1cc(C(=O)CN2C(=O)NC3(CCCc4ccccc43)C2=O)c(C)n1Cc1ccco1 (stereo not given) | – | active: 1.65 µM
